In general, % Inhibition refers to the drop in the measured response relative to a control, in per cent.

Consider 101 compounds from ChEMBL document CHEMBL4888484, “Replenishing the malaria drug discovery pipeline: Screening and hit evaluation of the MMV Hit Generation Library 1 (HGL1) against asexual blood stage Plasmodium falciparum ,using a nano luciferase reporter read-out” (2022).

About 410 (8.5%) of roughly 4,800 compounds showed an effect of 50% or more. This is one part of the list.

The test system of this assay is Plasmodium falciparum. Put plainly: Confirmatory screen in NF54 pLDH assay, in single point, at 2uM, 72h. The conditions noted are these: timepoint 72 hour. The class given is functional, Erythrocyte.
`Brc1ccc2sncc2c1`: the “% Inhibition” value was determined as 3%.

With `CN([C@H]1CCCc2c1cnn2C)S(=O)(=O)CCN1CCCC1`, the “% Inhibition” value is on record as 15%.

As for `Cc1c(Cc2c(Cl)cccc2Cl)c(=O)ccn1[C@@H](C)c1ccccc1`, the “% Inhibition” value came to 6%.

With `c1ccc(-c2noc(-c3ccc(NC4CCCCC4)nn3)n2)cc1`, the “% Inhibition” value is 60%.

As to `Cc1c(C(=O)N2CCCCC2)cccc1N1CCNC1=O`, the “% Inhibition” value is recorded as -15%.

Take `COC[C@@H](C)CNc1nc(C)cc(C)n1`: the “% Inhibition” value was -7%.

On to `COc1cc(N)c(NC(C)=O)cc1Cl`, for which the “% Inhibition” value was found to be 7%.

`N#Cc1cc(C(=O)Nc2nccc3sccc23)c[nH]1`: the “% Inhibition” value is recorded as -9%.

For the compound `N#Cc1ccc(O)c(NC(=O)c2snc(O)c2Cl)c1`, the “% Inhibition” value is -3%.

As for `O=C(NCc1cccc(Cl)c1)[C@H]1CCCN(c2nc3cccnc3n(Cc3ccccc3)c2=O)C1`, the “% Inhibition” value was -7%.

`COc1cc(CC2CN(C(=O)c3cscn3)C2)cc(OC)c1`: the “% Inhibition” value was found to be 3%.

As for `O=C(Nc1cccc(Cl)c1)c1ccc(-c2cnc(N3CCCC3)nc2)cc1`, the “% Inhibition” value is listed as -19%.

As to `Cc1c(-c2cc(-c3cnn(C)c3C)n(CC(=O)NC3CCCCC3)n2)cnn1C`, the “% Inhibition” value was found to be 4%.

As to `COc1ccc(S(=O)(=O)N(c2onc(C)c2Cl)S(=O)(=O)c2ccc(OC)c(OC)c2)cc1OC`, the “% Inhibition” value is 4%.

As for `CC[C@@H](CO)NC(=O)Nc1cccc(C)c1`, the “% Inhibition” value is reported as 8%.

Take `COc1ccccc1N1C(=O)C2C(C)NC3(C(=O)N(Cc4ccc(F)cc4)c4ccccc43)C2C1=O` (stereo unspecified): the “% Inhibition” value stood at 12%.

`C[C@H](OC1CCCCCC1)C(=O)Nc1nc(C(N)=O)cs1`: the “% Inhibition” value is listed as -11%.

For the compound `CCn1nccc1C(=O)NC1CCN(c2nnc3ccc(Cl)cn23)CC1`, the “% Inhibition” value was found to be 10%.

`CC(C)n1[nH]c(=O)c2c(C3CCCCC3)c3sc(=O)[nH]c3nc21`: the “% Inhibition” value is -12%.

As for `O=S(=O)(c1ccc(CC(F)(F)F)cc1)N1CCOCC12CCC2`, the “% Inhibition” value is reported as -1%.

With `Cc1ccc(-c2noc(CCC(=O)NCC(C)C)n2)c(=O)n1C(C)C`, the “% Inhibition” value came out at 3%.

Regarding `CC(N)C1CCN(c2cncc(OCC3CCCC3)n2)C1` (stereo unspecified), the “% Inhibition” value is 15%.

On to `CCCc1cc(-c2nc(-c3ccc(-n4nc(C)cc4N)cc3)no2)n(C)n1`, for which the “% Inhibition” value turned out to be 88%.

Turning to `N#CC1(NC(=O)c2ccncc2Cl)CCCC1`, the “% Inhibition” value is recorded as 11%.

For `O=C(NOCc1ccc(F)cc1)NC1CCCCC1`, the “% Inhibition” value was -10%.

As for `Cc1ncsc1COC(=O)c1ccnc(N(C)C)c1`, the “% Inhibition” value is 10%.

Regarding `CC1CCC(N2CC(C(=O)N(C3CC3)C(C)C(C)C)CC2=O)CC1` (stereo unspecified), the “% Inhibition” value is listed as 1%.

For `C=CCOc1cc(C(=O)N2CCCCC2)cc2occc12`, the “% Inhibition” value is given as 11%.

As to `Cc1c(Cl)cccc1NC(=O)[C@H]1CC(=O)N(c2ccc(OCc3ccccc3)cc2)C1`, the “% Inhibition” value is on record as 2%.

Consider `CC(=O)c1cc(-c2cc(O)cc(CC[C@H]3CCCCN3)c2)ccc1O`, for which the “% Inhibition” value is reported as 85%.

With `Cc1cc(C)n(S(=O)(=O)c2cccc3cccnc23)n1`, the “% Inhibition” value was -10%.

Regarding `Cc1cc(=O)n2ncc(C(=O)N3CCN(c4ccc(Cl)cc4)CC3)c2[nH]1`, the “% Inhibition” value is on record as -22%.

As to `O=C(N[C@@H]1CN(Cc2ccccn2)CCC[C@H]1O)c1ccc(OCc2ccccc2)cc1`, the “% Inhibition” value is reported as 42%.

For `Cc1cc(-c2nnc3n2CC(C)(C)CC3)c(C)o1`, the “% Inhibition” value came out at 10%.

In the case of `C[C@@H](CC(=O)O)N(C(N)=O)c1ccc(Nc2ccccc2)cc1`, the “% Inhibition” value came to 9%.

Regarding `COc1cc(Cl)cc2c1OC=CC(C(=O)Nc1ncc(Cc3ccccc3)s1)=C2`, the “% Inhibition” value came out at 4%.

As to `Cc1ccc(S(=O)(=O)C[C@H](CN2CCN(C)CC2)N2CCN(C)CC2)cc1`, the “% Inhibition” value is -5%.

For the compound `COc1ccc(CNC(=O)[C@H]2CN(C(=O)c3ccncc3)CC23CCCCC3)c(OC)c1`, the “% Inhibition” value is -9%.

Regarding `c1ccc2cc(-c3ccc4ccccc4n3)ccc2c1`, the “% Inhibition” value worked out at 16%.

`Cc1ccccc1S(=O)(=O)NCc1nnc(C(=O)Nc2ccc(F)cc2F)s1`: the “% Inhibition” value is listed as 11%.

In the case of `CCc1nn(-c2ccccc2)c(Oc2ccccc2)c1CN(C[C@H]1CCCO1)C(=O)C(C)C`, the “% Inhibition” value is -24%.

In the case of `O=C1N[C@H]2C[C@@H](C(=O)NC[C@H]3O[C@H](CCOc4cc(-c5ccccc5)ccc41)CC[C@@H]3O)N(Cc1ccc(Cl)c(F)c1)C2`, the “% Inhibition” value is listed as -7%.

For the compound `CC(=O)N1CCc2cc(NS(=O)(=O)c3cc(C)ccc3O)ccc21`, the “% Inhibition” value is -14%.

With `CCC(CC)(NCC(=O)NC1CC1)c1ccc(Cl)cc1`, the “% Inhibition” value is reported as -1%.

Take `Cn1cc(NC(=O)C(=O)NCC2(c3ccc(F)cc3F)CC2)cn1`: the “% Inhibition” value is given as 8%.

Take `CN(C)Cc1cn(C[C@H]2C[C@@H](NC(=O)Nc3ccc4c(c3)OCCO4)[C@H](O)[C@@H]2O)nn1`: the “% Inhibition” value is 13%.

With `O=S(=O)(c1ccc(Br)cc1)N1CCOC12CCCCC2`, the “% Inhibition” value is given as -5%.

Take `CC(=O)N[C@H](C(=O)N1CCCC1)C(C)C`: the “% Inhibition” value turned out to be 4%.

Regarding `Clc1ccc(NC2(c3noc([C@@H]4CCCCO4)n3)CCC2)cc1`, the “% Inhibition” value is 5%.

On to `CCc1c[nH]c(CNC(=O)C2(C(=O)NC3CC3)CCC2)n1`, for which the “% Inhibition” value is recorded as 7%.

For the compound `CC[C@H]1Cn2c(C(=O)NCc3ccc4c(c3)OCO4)cc3c(Cl)ccc(c32)O1`, the “% Inhibition” value was -10%.

As for `CCOC(=O)N(c1ccccc1)[C@H]1CC(=O)N(c2ccccc2)C1=O`, the “% Inhibition” value came out at 17%.

Consider `CCCc1ccc(OCCNC(=O)C2CCCC2)cc1`, for which the “% Inhibition” value was determined as 3%.

With `Cc1noc(C)c1CC(=O)N1C[C@H]2CCCC(=O)N(Cc3ccccc3)[C@H]2C1`, the “% Inhibition” value turned out to be 10%.

Turning to `Cc1nn(CC(=O)NC2CC3CCC(C2)N3C)c2nc(C3CC3)cc(C(F)(F)F)c12` (stereo unspecified), the “% Inhibition” value is listed as 10%.

For `CCOC(=O)c1cc(NC(=O)C(C)(C)NC(=O)OC(C)(C)C)c(F)cc1C`, the “% Inhibition” value was 8%.

As for `Cc1noc2ncc(C(=O)N3CCC[C@@H]3CC(C)(C)C)cc12`, the “% Inhibition” value turned out to be 0%.

Consider `COc1cccc(C(=O)N2CCC3(CC2)C[C@@H](OCc2ccccc2)CCO3)c1`, for which the “% Inhibition” value was 12%.

Turning to `CCCOC(=O)Nc1ccc(Br)cc1Br`, the “% Inhibition” value is recorded as -2%.

For `CS(=O)(=O)N[C@H]1C[C@@H]2C[C@H]1N(C(=O)NCc1cccc(F)c1)C2`, the “% Inhibition” value was 9%.

Turning to `CCc1cc(C(=O)NCc2cn(C)nc2C)c2c(C3CC3)nn(-c3ccc(F)cc3)c2n1`, the “% Inhibition” value turned out to be 10%.

Take `Cc1ccc(-c2n[nH]c(NC(=O)Nc3ccc(F)c(S(=O)(=O)NC4CC4)c3)c2C)o1`: the “% Inhibition” value is on record as -5%.

For the compound `CCOc1ccc(C(=O)N2CCN(c3nnc4ccccn34)CC2)cc1`, the “% Inhibition” value came to 8%.

`Brc1ccc(Oc2ncc(CN3CCOCC3)s2)cc1`: the “% Inhibition” value was found to be 7%.

For the compound `O=C(COc1ccccc1Cl)Nc1ccc(C2(c3ccc(NC(=O)COc4ccccc4Cl)cc3)c3ccccc3-c3ccccc32)cc1`, the “% Inhibition” value is 10%.

Regarding `N#Cc1cncc(N2CCc3ccccc3C2)n1`, the “% Inhibition” value was found to be 6%.

As for `O=C(c1ccc(Cl)c(Cl)c1)C1CCN(C(=O)[C@H]2CCn3cncc3C2)CC1`, the “% Inhibition” value was determined as 12%.

Take `Cc1ccc(C)c(N2CCN(c3ncc4c(=O)n(-c5ccc6c(c5)OCO6)c(=O)[nH]c4n3)CC2)c1`: the “% Inhibition” value is given as 3%.

On to `CCc1nnc(NC(=O)C2CC2c2ccccc2)s1` (stereo unspecified), for which the “% Inhibition” value was 1%.

Turning to `C[C@@H](c1ccccn1)N1CCC2(CCCCC2)CC1`, the “% Inhibition” value was -2%.

In the case of `COc1ccc2c(/C=C/c3cc[n+](C)cc3)cn(Cc3ccccc3)c2c1`, the “% Inhibition” value was found to be 62%.

Take `CCn1cc([C@@H](O)C(F)(F)F)c(C)n1`: the “% Inhibition” value is on record as -6%.

On to `C[C@H](C(=O)NCc1cc(F)cc(F)c1)C1CCOCC1`, for which the “% Inhibition” value worked out at 4%.

For the compound `Cc1c(-c2ccc(F)cc2)[nH]c2ccc(CNc3nccc(N(C)C)n3)cc12`, the “% Inhibition” value was 50%.

`O=C(NCCN1CCCCC1)c1cn2ccnc(-c3ccccc3)c2n1`: the “% Inhibition” value turned out to be 4%.

Consider `CCOc1ccc(-c2cc(NC(=O)c3cc(-c4cccnc4)nc4ccccc34)on2)cc1OCC`, for which the “% Inhibition” value came to 98%.

Regarding `C[C@H](NC(=O)c1ccc(Cl)o1)c1nnc2n1CCCCC2`, the “% Inhibition” value is given as 0%.

Take `COc1ccc(CC(=O)Nc2cc(C)n(-c3cccc(Cl)c3)n2)cc1`: the “% Inhibition” value was found to be 93%.

Take `COc1ccc(NC(=O)[C@@H](c2ccc(OC)c(OC)c2)N(Cc2ccccc2)C(=O)Cn2nnc3ccccc32)cc1`: the “% Inhibition” value is -7%.

For `CCCS(=O)(=O)NC1CCC2(CC1)OCCO2`, the “% Inhibition” value is reported as -18%.

For the compound `O[C@H]1CNCC[C@@H]1Nc1cc(-c2ccccc2)nc2ccccc12`, the “% Inhibition” value turned out to be 76%.

Take `Cc1ccnc(N(C(=O)c2cc(Cl)ccc2Cl)C(=O)c2cc(Cl)ccc2Cl)c1`: the “% Inhibition” value is recorded as -11%.

On to `CCN(CC(=O)Nc1ccccc1OC)C(=O)c1ccc(S(=O)(=O)N2CCOCC2)cc1`, for which the “% Inhibition” value is 7%.

Turning to `O=c1cc(COc2ccc(F)c(F)c2)nc2sccn12`, the “% Inhibition” value was 9%.

Turning to `CNC(=O)[C@@H]1C[C@H](NCc2cc(OC)c(OC)c(OC)c2)CN1CC(c1ccccc1)c1ccccc1`, the “% Inhibition” value was 50%.

As for `Cc1cccc(Cn2ccc(-c3cccc(OCc4ccc(Cl)cc4Cl)c3)n2)c1`, the “% Inhibition” value is on record as -7%.

On to `Cc1cc2nc(C)c3c(n2n1)N(Cc1ccccc1Cl)CC3`, for which the “% Inhibition” value came out at 4%.

`CCOC(=O)Nc1nc(-c2ccccc2)c(C(=O)c2ccc(S(C)(=O)=O)cc2)s1`: the “% Inhibition” value came out at 11%.

For `Cc1cnc(CC[C@H]2CCCN2C(=O)CCCc2ccccc2)n1C`, the “% Inhibition” value was 10%.

For `CCCC1(c2ccncc2)CC(C)OC1=O` (stereo unspecified), the “% Inhibition” value worked out at 10%.

As for `COc1nc(NC2CCS(=O)(=O)CC2)ncc1F`, the “% Inhibition” value amounted to 77%.

With `CC1(C)COCCN1C(=O)Cc1cnn(-c2ccccc2)n1`, the “% Inhibition” value is on record as 5%.

For the compound `Cc1noc(NCc2ccc(Cl)cc2)n1`, the “% Inhibition” value came out at 23%.

Consider `Cc1nnc(-c2ccc3ccn(CC(=O)Nc4ccc(F)c(Cl)c4)c3c2)o1`, for which the “% Inhibition” value is recorded as 96%.

For the compound `COc1ccc(C)cc1NC(=O)C[C@H]1CCN(S(C)(=O)=O)C1`, the “% Inhibition” value amounted to 9%.

Take `CC(C)(C)OC(=O)CN(c1cc(F)cc(F)c1)S(=O)(=O)c1ccc2nncn2c1`: the “% Inhibition” value is given as -2%.

Turning to `Cc1noc(C)c1NS(=O)(=O)c1ccc2c(c1)OCCCO2`, the “% Inhibition” value is on record as 0%.

On to `CC1(C)NC(=O)N(CNc2ccc(Br)cc2)C1=O`, for which the “% Inhibition” value is reported as -20%.

`CC(C)CC(=O)Nc1ccc2c(c1)C(N1CCC(C)CC1)=Nc1ccccc1O2`: the “% Inhibition” value was -17%.

Take `Nc1c(-c2ccccc2)nsc1C(=O)NCCc1cccs1`: the “% Inhibition” value amounted to 7%.

For `Cc1c(C(c2ccc(-c3ccccc3Cl)o2)c2c(C)n(C)n(-c3ccccc3)c2=O)c(=O)n(-c2ccccc2)n1C`, the “% Inhibition” value was 5%.
